# The campaign covered roughly 150,000 compounds. About 540 (0.36%) showed an effect of 50% or more. The list shows a part of the results.
# Test system: Plasmodium falciparum
# Assay: Primary screen in NF54 nanoGlo assay, in single point, at 2uM, 72h; a lower Z score goes with more inhibition
# Assay type: functional, Erythrocyte
# Details: timepoint 72 hour
SMILES,% Inhibition [%],Z score
CCOc1ccc(CN2C(=O)C(C)C(C)C2=O)nc1 (stereo unspecified),-10,1.45
COc1cccc(CN2CCC3(CC[C@@H]3O)CC2)n1,-13,1.61
Cc1ccccc1CS(=O)(=O)N1CCC(C(=O)N2CCN(c3cccc(C)c3C)CC2)CC1,-6,1.02
COCC(=O)N[C@@H]1CN(C(=O)Cc2cc3ccccc3o2)C[C@H]1c1ccnn1C,-2,0.24
CN(Cc1cnccn1)C1CC2CCC1C2 (stereo unspecified),-8,0.9
O=C(NCc1ccnc(N2CCCC2=O)c1)[C@H]1CCOC1,-13,2
N#Cc1cccc([C@@H](C#CC2(O)CCCC2)N2CCC(C(N)=O)CC2)c1,-5,1.05
O=C(c1cccc2ccccc12)N1CC(COc2ccc3c(c2)OCO3)C1,5,-0.77
CN1CCC(N2CCN(C/C=C/c3ccc(F)cc3)C[C@@H]2CCO)CC1,-5,0.58
O=C1CC[C@@]2(CCCO2)CCN1Cc1ccc(F)cc1,-13,1.69
O=C(C#Cc1ccccc1)NCc1ccn2ccnc2c1,-7,0.73
O=C(c1ccc(N2CCOCC2)nn1)N1CCN(c2ncccn2)CC1,-19,3.24
COCc1nccc(N(Cc2ccccn2)Cc2ccccc2C)n1,2,-0.3
CC[C@H](O)CCNC(=O)c1cc(F)c(Cl)cc1F,19,-2.36
Cc1ncccc1CN1CCC(C(=O)N2CC(C)OC(C)C2)CC1 (stereo unspecified),-12,1.51
CCCCNc1ccccc1C(=O)N1CCC2(CCO2)CC1,4,-0.53
COc1ccc(OC)c(-c2c([C@@H]3c4ccccc4C(=O)N3Cc3ccco3)c3ccccc3n2C)c1,-8,1.19
CCCCn1cnc2c(-c3ccccc3)cn(Cc3ccc(F)cc3)c2c1=O,-11,1.09
N#Cc1oc2ccccc2c1NC(=O)CN1CCCCCC1,-8,1.5
COc1ccc(O)c(C(=O)N2CCC3(CC2)c2nc[nH]c2CCN3C(C)=O)c1,-5,0.79
CCCc1nc(CNS(=O)(=O)c2ccc(-c3c(C)noc3C)s2)cs1,-25,2.56

SMILES,% Inhibition [%],Z score
Cc1nn(-c2ncnc3[nH]cnc23)c2c1[C@@H](c1ccc(C#N)cc1)CC(=O)N2,5,-0.63
CN(C)c1ncc(CN[C@H]2[C@H](c3ccccc3)C2(C)C)cn1,10,-1.13
CC(C)n1nccc1NC(=O)c1c[nH]c2ccc(F)cc2c1=O,37,-4.19
Cc1nnsc1CN1C[C@@](C)(c2ccccc2)CCC1=O,-16,1.61
O=C(NCC(O)c1ccc(-c2ccco2)cc1)C1CCOC1 (stereo unspecified),19,-2.58
Cc1ccsc1CN(Cc1c[nH]cn1)CC(C)C,-6,1.03
CCOC1CC(NCc2csc(N(C(C)=O)C3CC3)n2)C12CCC2 (stereo unspecified),9,-1.42
CC(c1ccccc1)C(CNC(=O)N1CCOCC1)NC(=O)N1CCOCC1 (stereo unspecified),-5,0.65
NS(=O)(=O)c1ccc(-n2ccnc2-c2cccc3nonc23)cc1,-2,0.27
CN(C)c1noc(CN(Cc2ccc(Cl)cc2)C2CC2)n1,-14,1.64
Cc1cc(C)cc(-c2cn(CCc3n[nH]c(=O)[nH]3)nn2)c1,-5,1.02
COc1cccc(NC(=O)Nc2ccc(OCc3ccccc3)cc2)c1,0,-0.05
Cc1cc(C)nc(NC(=O)N(Cc2ccncc2)C2CC2)c1,-6,0.5
O=c1c2cccn2ncn1Cc1ccc2c(c1)CCC2,-5,0.55
CS(=O)(=O)N1CCC[C@@]2(C1)OC(=O)c1ccccc12,-9,1.66
O=C(N[C@H]1CC(=O)N(c2ccccc2)C1)C1CCN(Cc2ccco2)CC1,-9,1.64
O=C(CCCCC(=O)n1cnc2ccccc21)n1cnc2ccccc21,28,-3.13
CCn1nc(C)cc1C(=O)Nc1n[nH]c(C)n1,-5,0.54
O=C(c1ccccc1)N1CCCc2cc(S(=O)(=O)N3CCCC3)ccc21,-7,0.91
Cc1nc(-c2c[nH]c(=O)c(Cl)c2)n(-c2ccc(S(N)(=O)=O)cc2)n1,-9,1.09
O=c1ccn(-c2ccc(F)c(F)c2)nc1-c1nc(-c2ccc(F)c(Cl)c2)no1,7,-1.07

SMILES,% Inhibition [%],Z score
COc1ccc(-c2cc(N3CCN(C(=O)CCn4ccc(=O)[nH]c4=O)CC3)ncn2)cc1,-13,2.5
CN1CCN(c2nccn3nnnc23)C[C@@H]1CO,-16,1.61
Cc1ccc(C#N)c(N2CCC(N3CCC[C@H](C(=O)N4CCCC4)C3)CC2)n1,8,-1.05
Cc1ccsc1CN(CCc1c[nH]c2ccccc12)Cc1nc(C(=O)NCc2ccccc2)co1,-3,0.24
CN1CC(=O)N2CCN(S(=O)(=O)c3ccc(F)cc3F)C[C@H]2C1=O,-18,1.84
Cc1cc(C)c(NC(=O)Cn2nc3c(N(C)C4CCCCC4)nccn3c2=O)c(C)c1,-20,1.97
COc1cc(C)ccc1OCc1nc(C(=O)N(C)[C@@H](C)c2ccon2)co1,8,-1.22
COc1ccc(C)cc1NC(=O)c1cc(C)cc(O)n1,-11,1.17
Brc1ccc(-c2nc(NCc3ccccc3)cc(-c3ccccc3)n2)cc1,-8,1.03
Cc1c(S(=O)(=O)Nc2ccccc2)c(C)n(C)c1-c1nnc(C2CCC2)o1,7,-0.9
CCOC(=O)N1CCN(Cc2nc(Nc3ccc4c(c3)OCO4)c3cccc(C)c3n2)CC1,-10,1.39
Cc1c(CN2CCO[C@@H](CCN)C2)[nH]c2c(Cl)cccc12,-12,1.18
CN(CC1CCCC1O)C(=O)c1ccc(Cn2cc(Br)cn2)o1 (stereo unspecified),-14,2.56
O=C(CN1CCOC1=O)N1CCCC[C@H](c2ccc(Cl)cc2)C1,11,-1.39
O=C(CN1CCOCC1C1CCCC1=O)Nc1ccc(Br)cc1 (stereo unspecified),-10,1.66
CC(C)N(C(=O)CN(C)S(=O)(=O)c1ccc(Br)cc1)C(C)C,-4,0.39
CC(C)Nc1ncc(-c2nccn2-c2ccc(F)c(F)c2F)cn1,-18,2.11
O=C(Nc1ccc2oc(-c3cc(F)ccc3Br)nc2c1)N1CCOCC1,-4,0.61
Cc1ncoc1C(=O)N1CCC([C@H]2[C@@H](Oc3ccccc3)CN2C(C)C)CC1,10,-1.12
CC(=O)Nc1nc(CC(=O)N2CCCc3ccccc32)cs1,-11,1.28
Cc1nc(N)ncc1C(=O)N1CCCCC[C@H]1c1cccc(F)c1,-6,0.86

SMILES,% Inhibition [%],Z score
CN(Cc1ccc(N2CCOCC2)cc1)Cn1c(=S)sc2ccccc21,4,-0.49
CCCNC(=O)c1ccc(-c2ccnn2CC)s1,4,-0.39
Cc1nnc(NC(=O)CCCN2C(=O)CCC2=O)s1,-13,2.44
COc1ccc(-c2nn(-c3ccccc3C)c3c2C(C)=CC(=O)[C@H]3CC(=O)Nc2ccccc2C)cc1,-14,1.78
CC(C)(C)c1cnc(CN2CC(O)(c3ccccc3)C2)s1,-11,1.26
O=C(C1CCN(C(=O)[C@H]2C[C@@H]2c2cccc(O)c2)C1)N1CCCC1 (stereo partly specified),-13,2.36
CCn1nc(C)c(C(=O)N[C@@H](C)c2cnc(-c3ccncc3)nc2C)c1C,-9,1.71
COC(=O)c1ccccc1N1C(=O)[C@@H]2[C@H](C)N[C@@]3(C(=O)Nc4ccccc43)[C@@H]2C1=O,-3,0.45
O=C(NCc1ccccc1)NCc1ccc2c(c1)CCN2C(=O)c1ccccc1,-13,2.54
CNS(=O)(=O)C1CCN(C(=O)C(C)(C)c2ccc(C)cc2)CC1,-13,1.06
CCOC(=O)C1(O)CCN(Cc2ccon2)CC1,4,-0.59
CCn1c(Cn2cnc3ccccc3c2=O)nc2cc(F)ccc21,-13,2.4
Cc1ccc(-c2cc(C(=O)N3CCN(c4ccccc4C)CC3)n(-c3ccc(Cl)c(Cl)c3)n2)o1,-16,1.86
CC(=O)Nc1ccc(CN2Cc3nc[nH]c3C[C@H]2C(=O)NCc2ccc(C(F)(F)F)cc2)cc1,-2,0.36
O=C(c1cccc(Oc2ccccc2)c1)N1CCc2ccccc2C1,0,-0.01
COc1ccc(C(=O)N(Cc2ccc(N(C)C)cc2)C2(C(=O)NCc3ccccc3)CCN(C(C)=O)CC2)cc1,7,-0.95
COc1ccc(C(=O)N2CCC[C@@H]2Cc2ccc3ccccc3c2)nn1,12,-1.66
CCc1nnc(NC(=O)[C@H](C)N(C)Cc2sccc2C)s1,-3,0.4
Cc1oc(-c2ccc3ccccc3c2)nc1CN1CCCC[C@H]1c1nccs1,-3,0.5
Cc1cc(CNC(=O)c2ccc(-c3nnc(C)n3C)cc2)ccc1N(C)C,-13,1.91

# Reference: ChEMBL document CHEMBL4888484, “Replenishing the malaria drug discovery pipeline: Screening and hit evaluation of the MMV Hit Generation Library 1 (HGL1) against asexual blood stage Plasmodium falciparum ,using a nano luciferase reporter read-out” (2022)
